{"sequences": {"note": "Amino acid sequences for entries named in this document (tags omitted). A change or cut given only in a name is not applied to a line headed by its entry. Chains listed by the source or under a name are the forms on record and can include a tag or linker. Residues count along the entry.", "UniProt P40337": "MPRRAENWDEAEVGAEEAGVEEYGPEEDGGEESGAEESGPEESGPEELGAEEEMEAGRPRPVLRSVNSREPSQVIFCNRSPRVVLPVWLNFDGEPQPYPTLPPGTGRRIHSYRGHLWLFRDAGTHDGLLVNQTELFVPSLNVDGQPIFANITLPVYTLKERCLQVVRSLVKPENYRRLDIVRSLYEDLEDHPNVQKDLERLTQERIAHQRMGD", "Flag-VHL 1–154 aa": "residues 1-154 of P40337", "Flag-VHL Δ115–154 aa (P40337, form named)": "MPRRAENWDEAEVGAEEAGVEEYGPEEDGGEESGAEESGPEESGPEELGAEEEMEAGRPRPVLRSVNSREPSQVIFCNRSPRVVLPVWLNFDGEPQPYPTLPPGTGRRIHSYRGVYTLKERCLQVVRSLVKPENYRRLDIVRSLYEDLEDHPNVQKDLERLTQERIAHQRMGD", "UniProt Q9GZX5": "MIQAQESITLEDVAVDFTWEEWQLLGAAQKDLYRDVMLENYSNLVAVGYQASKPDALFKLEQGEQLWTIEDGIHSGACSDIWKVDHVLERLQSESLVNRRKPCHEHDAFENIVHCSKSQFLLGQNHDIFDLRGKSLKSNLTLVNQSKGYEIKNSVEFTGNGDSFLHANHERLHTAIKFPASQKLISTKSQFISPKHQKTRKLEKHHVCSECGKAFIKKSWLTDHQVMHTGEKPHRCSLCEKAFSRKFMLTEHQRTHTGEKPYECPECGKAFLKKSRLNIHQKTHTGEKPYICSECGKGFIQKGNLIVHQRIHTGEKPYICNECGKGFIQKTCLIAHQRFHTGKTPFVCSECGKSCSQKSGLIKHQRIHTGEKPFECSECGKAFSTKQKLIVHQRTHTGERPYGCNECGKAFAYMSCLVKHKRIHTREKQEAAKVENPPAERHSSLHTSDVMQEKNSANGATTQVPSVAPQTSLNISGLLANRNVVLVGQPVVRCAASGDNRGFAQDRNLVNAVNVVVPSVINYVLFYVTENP", "UniProt Q09472": "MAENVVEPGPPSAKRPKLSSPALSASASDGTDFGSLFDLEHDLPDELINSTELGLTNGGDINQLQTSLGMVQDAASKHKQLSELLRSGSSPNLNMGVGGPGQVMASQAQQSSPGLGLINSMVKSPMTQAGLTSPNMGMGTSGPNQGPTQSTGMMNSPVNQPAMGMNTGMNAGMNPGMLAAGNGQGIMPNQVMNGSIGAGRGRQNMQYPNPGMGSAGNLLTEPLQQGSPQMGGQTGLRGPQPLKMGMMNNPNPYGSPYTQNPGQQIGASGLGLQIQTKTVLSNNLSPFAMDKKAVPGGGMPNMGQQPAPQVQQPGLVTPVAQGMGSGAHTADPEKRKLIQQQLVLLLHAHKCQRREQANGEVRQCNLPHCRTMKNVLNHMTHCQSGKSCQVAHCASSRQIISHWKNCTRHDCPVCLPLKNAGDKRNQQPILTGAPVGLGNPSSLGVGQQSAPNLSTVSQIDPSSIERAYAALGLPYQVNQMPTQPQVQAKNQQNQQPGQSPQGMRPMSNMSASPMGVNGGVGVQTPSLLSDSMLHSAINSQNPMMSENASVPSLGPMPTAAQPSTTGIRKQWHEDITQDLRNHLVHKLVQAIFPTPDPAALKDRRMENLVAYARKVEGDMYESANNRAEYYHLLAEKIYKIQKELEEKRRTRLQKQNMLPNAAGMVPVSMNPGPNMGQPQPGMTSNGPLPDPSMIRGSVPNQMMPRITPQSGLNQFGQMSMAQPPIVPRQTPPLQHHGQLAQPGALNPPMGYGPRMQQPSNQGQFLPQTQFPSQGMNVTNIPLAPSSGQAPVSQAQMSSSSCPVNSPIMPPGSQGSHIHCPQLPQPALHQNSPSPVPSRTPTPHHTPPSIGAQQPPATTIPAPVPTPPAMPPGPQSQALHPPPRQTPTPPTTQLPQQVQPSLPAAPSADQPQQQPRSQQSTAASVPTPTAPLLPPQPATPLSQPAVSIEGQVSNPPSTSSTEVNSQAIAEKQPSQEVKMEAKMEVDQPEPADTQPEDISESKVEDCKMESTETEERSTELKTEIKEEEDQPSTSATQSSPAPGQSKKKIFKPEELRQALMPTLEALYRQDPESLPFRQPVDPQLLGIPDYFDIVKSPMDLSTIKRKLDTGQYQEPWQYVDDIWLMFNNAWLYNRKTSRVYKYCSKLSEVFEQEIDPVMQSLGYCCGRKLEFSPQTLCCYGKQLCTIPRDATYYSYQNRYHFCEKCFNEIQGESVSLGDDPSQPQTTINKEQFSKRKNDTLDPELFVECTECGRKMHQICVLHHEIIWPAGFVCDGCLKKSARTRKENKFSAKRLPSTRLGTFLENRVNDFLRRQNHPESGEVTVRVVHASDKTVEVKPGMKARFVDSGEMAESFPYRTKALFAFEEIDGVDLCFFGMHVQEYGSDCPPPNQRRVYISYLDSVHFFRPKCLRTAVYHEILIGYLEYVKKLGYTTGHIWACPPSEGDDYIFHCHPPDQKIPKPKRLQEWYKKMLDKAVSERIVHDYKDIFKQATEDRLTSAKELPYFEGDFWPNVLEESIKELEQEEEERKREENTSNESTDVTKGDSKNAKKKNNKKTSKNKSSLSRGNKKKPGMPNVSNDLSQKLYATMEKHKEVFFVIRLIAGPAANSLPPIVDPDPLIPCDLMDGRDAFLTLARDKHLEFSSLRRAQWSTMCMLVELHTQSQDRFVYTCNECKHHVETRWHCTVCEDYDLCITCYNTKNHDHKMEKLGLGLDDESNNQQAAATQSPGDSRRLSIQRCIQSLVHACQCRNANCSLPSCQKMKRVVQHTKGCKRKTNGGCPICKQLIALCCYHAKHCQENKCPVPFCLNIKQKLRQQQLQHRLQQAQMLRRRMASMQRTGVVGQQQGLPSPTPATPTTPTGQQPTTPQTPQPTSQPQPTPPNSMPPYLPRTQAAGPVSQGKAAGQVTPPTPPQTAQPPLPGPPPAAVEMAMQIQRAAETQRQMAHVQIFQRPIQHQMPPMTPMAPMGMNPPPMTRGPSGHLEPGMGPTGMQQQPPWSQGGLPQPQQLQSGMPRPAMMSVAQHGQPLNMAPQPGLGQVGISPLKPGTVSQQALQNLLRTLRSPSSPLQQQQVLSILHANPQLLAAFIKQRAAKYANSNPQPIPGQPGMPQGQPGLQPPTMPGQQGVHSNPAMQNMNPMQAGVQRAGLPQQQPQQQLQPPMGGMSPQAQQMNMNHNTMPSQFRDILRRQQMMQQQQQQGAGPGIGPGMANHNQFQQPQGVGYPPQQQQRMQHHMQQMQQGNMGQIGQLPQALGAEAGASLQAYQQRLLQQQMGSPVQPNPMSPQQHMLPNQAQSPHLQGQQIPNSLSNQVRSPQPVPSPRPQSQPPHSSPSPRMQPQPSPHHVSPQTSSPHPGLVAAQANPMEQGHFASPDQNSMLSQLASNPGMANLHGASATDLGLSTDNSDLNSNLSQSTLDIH", "UniProt Q16665": "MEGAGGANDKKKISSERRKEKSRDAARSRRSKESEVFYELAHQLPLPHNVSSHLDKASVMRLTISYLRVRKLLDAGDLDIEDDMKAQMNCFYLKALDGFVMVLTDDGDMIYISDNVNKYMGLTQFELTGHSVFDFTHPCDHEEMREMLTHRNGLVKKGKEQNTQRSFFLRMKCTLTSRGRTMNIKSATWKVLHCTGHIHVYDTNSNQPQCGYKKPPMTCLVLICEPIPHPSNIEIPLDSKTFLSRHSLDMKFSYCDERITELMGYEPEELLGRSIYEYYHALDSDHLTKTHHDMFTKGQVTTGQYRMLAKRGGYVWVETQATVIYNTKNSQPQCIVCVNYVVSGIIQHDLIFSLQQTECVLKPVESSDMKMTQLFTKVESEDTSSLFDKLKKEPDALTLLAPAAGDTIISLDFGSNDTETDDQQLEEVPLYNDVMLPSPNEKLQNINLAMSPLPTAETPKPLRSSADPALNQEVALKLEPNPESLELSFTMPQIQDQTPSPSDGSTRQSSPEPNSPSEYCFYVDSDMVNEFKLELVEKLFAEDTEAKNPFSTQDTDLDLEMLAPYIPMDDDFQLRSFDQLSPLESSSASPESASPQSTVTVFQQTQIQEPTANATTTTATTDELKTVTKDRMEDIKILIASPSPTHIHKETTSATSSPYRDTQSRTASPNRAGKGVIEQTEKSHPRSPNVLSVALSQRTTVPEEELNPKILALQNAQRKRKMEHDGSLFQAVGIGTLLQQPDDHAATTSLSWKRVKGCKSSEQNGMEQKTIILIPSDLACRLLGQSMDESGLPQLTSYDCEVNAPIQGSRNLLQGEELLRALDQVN"}, "source": "paper PMC4466662", "key": {"[1]": {"molecular_target": "VHL (endogenous, ACHN cells) (human (endogenous in ACHN)) (UniProt P40337)", "assay": "co-IP; endogenous proteins, ACHN cell lysates; IP with anti-VHL (control rabbit IgG); blot with anti-ZBRK1 and anti-p300"}, "SF-VHL (human)": {"molecular_target": "SF-VHL (human) (UniProt P40337)", "assay": "pull-down; first step of tandem affinity purification: lysate (NETN) of ACHN cells stably expressing SF-VHL on Strep-Tactin Sepharose 4 h at 4°C, eluted with 2.5 mM desthiobiotin; blot with anti-Flag, anti-ZBRK1, anti-p300"}, "Flag-ZBRK1 (human) [2]": {"molecular_target": "Flag-ZBRK1 (human) (UniProt Q9GZX5)", "assay": "co-IP; HEK293T co-transfected with Flag-ZBRK1, HA-VHL and EGFP-HIF1α; precipitating antibody not told in the text (Supplementary Figure S5A)"}, "Flag-ZBRK1 (human) [3]": {"molecular_target": "Flag-ZBRK1 (human) (UniProt Q9GZX5)", "assay": "co-IP; HEK293T transfected with Flag- and HA-tagged constructs; lysed in NETN buffer; IP with anti-Flag and Protein G Agarose overnight at 4°C; blot with anti-HA"}, "GST-VHL (human)": {"molecular_target": "GST-VHL (human) (UniProt P40337)", "assay": "pull-down; GST-VHL purified from E. coli on glutathione-Sepharose 4B, incubated with lysates of Flag-ZBRK1-transfected HEK293T cells; NETN buffer; blot with anti-Flag; only the target purified"}, "[4]": {"molecular_target": "ZBRK1 (endogenous, ACHN cells) (human (endogenous in ACHN)) (UniProt Q9GZX5)", "assay": "co-IP; second step of tandem affinity purification: the desthiobiotin eluate from Strep-Tactin beads precipitated with anti-ZBRK1 and Protein G Agarose overnight at 4°C; blot with anti-Flag and anti-p300"}, "Flag-VHL (human)": {"molecular_target": "Flag-VHL (human) (UniProt P40337)", "assay": "co-IP; HEK293T transfected with Flag- and HA-tagged constructs; lysed in NETN buffer; IP with anti-Flag and Protein G Agarose overnight at 4°C; blot with anti-HA"}, "[5]": {"molecular_target": "Flag-VHL 1–154 aa (human) (UniProt P40337)", "assay": "co-IP; HEK293T transfected with Flag- and HA-tagged constructs; lysed in NETN buffer; IP with anti-Flag and Protein G Agarose overnight at 4°C; blot with anti-HA"}, "[6]": {"molecular_target": "Flag-VHL Δ115–154 aa (human) (UniProt P40337)", "assay": "co-IP; HEK293T transfected with Flag- and HA-tagged constructs; lysed in NETN buffer; IP with anti-Flag and Protein G Agarose overnight at 4°C; blot with anti-HA"}}, "note": "Results are given in words; binding and its absence hold for the method and conditions named. In cells and extracts the contact can be indirect. Some entries that bind do so weakly or less than the wild type.", "data": [{"substance": "ZBRK1 (endogenous, ACHN cells) (from UniProt Q9GZX5 1-532)", "values": [{"measurement": "binding", "setting": "[1]", "result": "binds"}, {"measurement": "binding", "setting": "SF-VHL (human)", "result": "binds"}]}, {"substance": "p300 (endogenous, ACHN cells) (from UniProt Q09472 1-2414)", "values": [{"measurement": "binding", "setting": "[1]", "result": "binds"}, {"measurement": "binding", "setting": "SF-VHL (human)", "result": "binds"}]}, {"substance": "EGFP-HIF1α (from UniProt Q16665 1-826)", "values": [{"measurement": "binding", "setting": "Flag-ZBRK1 (human) [2]", "result": "no binding"}]}, {"substance": "HA-VHL (from UniProt P40337 1-213)", "values": [{"measurement": "binding", "setting": "Flag-ZBRK1 (human) [2]", "result": "binds"}, {"measurement": "binding", "setting": "Flag-ZBRK1 (human) [3]", "result": "binds"}]}, {"substance": "Flag-ZBRK1 (from UniProt Q9GZX5 1-532)", "values": [{"measurement": "binding", "setting": "GST-VHL (human)", "result": "binds"}]}, {"substance": "SF-VHL (from UniProt P40337 1-213)", "values": [{"measurement": "binding", "setting": "[4]", "result": "binds"}]}, {"substance": "HA-ZBRK1 (from UniProt Q9GZX5 1-532)", "values": [{"measurement": "binding", "setting": "Flag-VHL (human)", "result": "binds"}, {"measurement": "binding", "setting": "[5]", "result": "binds"}, {"measurement": "binding", "setting": "[6]", "result": "binds"}]}]}
